# In all, about 110,000 compounds went through this assay and about 230 (0.21%) showed an effect of 50% or more. This is one part of the list.
# Molecular target: DPAP1 (Plasmodium falciparum, UniProt Q8IIJ9)
# Assay: primary screen, percent inhibition; read by cleavage of a fluorogenic dipeptide substrate; higher = more effect of the substance
# Parameters: species or system P. falciparum D10 trophozoite lysates; single well
# 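Also: 30 min substrate incubation versus DMSO and 10 µM JCP410 controls.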
# Sequence of DPAP1 (Q8IIJ9 whole entry, looked up): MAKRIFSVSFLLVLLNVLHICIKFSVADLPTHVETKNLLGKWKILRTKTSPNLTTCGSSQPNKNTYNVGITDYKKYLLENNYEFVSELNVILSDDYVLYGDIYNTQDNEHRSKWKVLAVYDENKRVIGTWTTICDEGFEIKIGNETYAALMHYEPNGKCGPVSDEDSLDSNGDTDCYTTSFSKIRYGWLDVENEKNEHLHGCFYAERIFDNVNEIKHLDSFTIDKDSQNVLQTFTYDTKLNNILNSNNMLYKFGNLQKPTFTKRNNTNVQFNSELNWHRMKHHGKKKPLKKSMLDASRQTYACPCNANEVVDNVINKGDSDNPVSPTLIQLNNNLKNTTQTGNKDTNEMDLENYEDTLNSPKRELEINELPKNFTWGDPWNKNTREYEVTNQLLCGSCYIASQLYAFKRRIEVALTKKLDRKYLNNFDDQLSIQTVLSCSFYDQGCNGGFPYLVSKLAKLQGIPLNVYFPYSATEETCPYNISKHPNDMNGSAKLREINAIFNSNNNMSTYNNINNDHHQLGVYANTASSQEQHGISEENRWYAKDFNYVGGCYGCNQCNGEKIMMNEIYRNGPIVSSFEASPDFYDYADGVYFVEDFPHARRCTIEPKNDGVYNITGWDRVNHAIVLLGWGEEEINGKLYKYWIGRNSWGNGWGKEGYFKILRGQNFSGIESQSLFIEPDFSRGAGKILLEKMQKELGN
row,SMILES,% Inhibition @ 10 uM
1,CCOc1ccc(C2CC(c3cccc(OC)c3OC)n3ncnc3N2)cc1Cl (stereo not shown),-3.6%
2,CCc1ccc(-c2cc3c(=O)n(CC(=O)NCCCOC(C)C)nc(C)n3n2)cc1,-1.08%
3,CCOc1ccc(C2c3c(oc4ccccc4c3=O)C(=O)N2c2ccccn2)cc1OCC (stereo not shown),0.331%
4,COc1ccccc1-c1c(C)nn2c(SCC(=O)NC3CCCC(C)C3C)cc(C)nc12 (stereo not shown),0.0198%
5,CCCc1nc(-c2ccc(-c3cccc(OC)c3)nc2OC)no1,2.1%
6,CCCOc1ccccc1C1CC(=O)NC(C)=C1C(=O)OCc1ccc(C)cc1 (stereo not shown),-0.396%
7,CC(C)(O)C#Cc1ccc(C(=O)N2CCN(c3ccccc3)CC2)cc1,-7.1%
8,O=S(=O)(NC1CCCc2ccccc21)c1ccc(S(=O)(=O)N2CCCCCC2)cc1 (stereo not shown),5.43%
9,COc1cc(C2N(C(C)=O)CCN2S(=O)(=O)c2ccc(C)cc2)ccc1O (stereo not shown),-2.87%
10,OCCN1CCN(Cc2ccc(F)cc2F)CC1,3.65%
11,Cc1c(C(=O)N2CCOCC2)oc2c1-c1nn(CC(=O)NCc3ccco3)cc1CC2,0.335%
12,Cc1ccccc1C(=O)Nc1cc2c(ccc3ccccc32)oc1=O,4.35%
13,CC1=CCC2(CO)COC(C(C)(C)CO)C1C2 (stereo not shown),-1.86%
14,O=S1(=O)C=CC(Nc2ccc(Cl)cc2)C1 (stereo not shown),-2.62%
15,O=C(c1ccc(CNS(=O)(=O)c2cccc(C(F)(F)F)c2)cc1)N1CCOCC1,2.01%
16,CCCOc1ccc(Cc2nn[nH]n2)cc1,4.52%
17,CCCC1(OC(=O)Nc2ccc(Cl)cc2)CCCCC1,-0.712%
18,CS(=O)(=O)/C=C/[C@H](CCCCNC(=O)OCc1ccccc1)NC(=O)[C@H](CCC(=O)Nc1ccccc1)NC(=O)c1ccc(Br)cc1,15.9%
19,CC(=O)c1ccc(N2CCN(Cc3ccc(Br)s3)CC2)cc1,5.56%
20,COc1cccc(C[C@H](NC(=O)OC(C)(C)C)C(=O)NCC#N)c1,7.39%
21,CCn1c(C(=O)O)c(CNC2CCC(C)CC2)c2ccc(C)cc21 (stereo not shown),-5.37%
22,Cc1ccc(CNc2sc(S(C)(=O)=O)nc2S(=O)(=O)c2ccc(Cl)cc2)cc1,-4.04%

row,SMILES,% Inhibition @ 10 uM
1,CC1(C)C2C(c3ccc([N+](=O)[O-])cc3)=NOC21C (stereo not shown),-4.35%
2,OCCN1CCN(C2Cc3cc(Cl)ccc3Sc3c(F)cccc32)CC1 (stereo not shown),-7.63%
3,Cc1[nH]c2ccccc2c1SCCNC(=O)c1ccc2c(c1)OCO2,-5.67%
4,CCOc1ccc2nc(NC3=NCN(CCc4ccccc4)CN3)nc(C)c2c1,-3.5%
5,CC(CNC(=O)c1cc2sc(Cl)cc2n1C)c1ccccc1 (stereo not shown),-3.08%
6,COCCn1c(C)cc(C(=O)CSc2ccc3ccccc3n2)c1C,-3.85%
7,COc1ccc(CNCCC2(Cc3ccccc3)CC(C)N(C)CC2C)cc1 (stereo not shown),1.24%
8,O=C(NC1CCC(NC(=O)c2cccc(Cl)c2)CC1)c1cccc(Cl)c1 (stereo not shown),-0.95%
9,Cc1c(-c2nsc(NC(=O)c3ccc(Cl)cc3)n2)nnn1-c1ccc(F)c(Cl)c1,-2.41%
10,CCCSc1nc(=O)c2c(n1C)NC(=O)CC2c1cc(Br)ccc1OC (stereo not shown),2.25%
11,CCCCOc1ccc(S(=O)(=O)n2cnc(C)c2)cc1,-2.87%
12,Cc1oc(-c2cccs2)nc1CS(=O)CC(=O)NCCCN1CC(C)CC(C)C1 (stereo not shown),-3.7%
13,COCc1nc2ccccc2n1CCc1ccccc1,-0.551%
14,CN(C)c1ccc(NS(=O)(=O)c2ccc(Cl)cc2)cc1,-0.318%
15,Cc1ccc(C2CCN(C(=S)NC(C)(C)C)C2)cc1 (stereo not shown),-2.72%
16,COc1nc(-c2ccccc2)nc2ccccc12,-3.18%
17,Cc1ccccc1NC(=O)CC1SC(Nc2ccccc2)=NC1=O (stereo not shown),-1.89%
18,CCCC(=O)N1CCN(c2ccc(NC(=O)Cc3ccccc3)cc2)CC1,-6.02%
19,CC1CCN(CCCCOc2ccccc2Br)CC1,-2.98%
20,Cc1ccc2c(c1)c1c3n2CCN(CCC#N)C3CCC1 (stereo not shown),4.9%
21,CO/C(O)=C1\C(C)=NC2=C(C(=O)CC(C)(C)C2)C1c1cc(CN2CCOCC2)cs1 (stereo not shown),2.72%
22,COc1cc(CC2C(=O)NC(=O)N(Cc3ccccc3)C2=O)ccc1O (stereo not shown),-2.5%

row,SMILES,% Inhibition @ 10 uM
1,O=C(Nc1ccc(O)cc1)C1CCCCC1,-4.63%
2,COc1cc(CN2CCN(Cc3ccccc3C(F)(F)F)CC2)cc(OC)c1OC,6.35%
3,CCC(C(=O)NC1CCCCC1)n1c(C(=O)OC)cc2sc(Cl)cc21 (stereo not shown),-6.42%
4,COc1ccc(-c2cc(C(=O)N3CCOCC3)no2)cc1OC,9.13%
5,COCc1cc(C)nc2sc3c(c12)NC(c1ccc(NC(C)=O)cc1)N(Cc1ccccc1)C3=O (stereo not shown),14.5%
6,O=C(O)COc1ccc(S(=O)(=O)c2ccc(OCC(=O)O)cc2)cc1,-5.28%
7,CCc1nc(NC(=O)c2sc(C)nc2C)sc1C(=O)OC,0.758%
8,COc1cc2nc(SCC(=O)N3CC(C)CC(C)C3)n3nc(-c4ccccc4)nc3c2cc1OC (stereo not shown),-2.29%
9,Cc1ccc(C(=O)C2=C(O)C(=O)N(CCN3CCOCC3)C2c2ccc(N(C)C)cc2)cc1 (stereo not shown),-3.87%
10,Cc1ccc(C(=O)NCCCn2ccnc2)cc1C,0.658%
11,COc1ccccc1N1CCN(C(=O)c2ccc(Cl)cc2)CC1,-5.57%
12,O=C(CC(c1ccccc1)N1CCOCC1)C1CC1 (stereo not shown),-5.84%
13,O=C(O)c1cc(NS(=O)(=O)c2ccc3ccccc3c2)ccc1O,-8.38%
14,CCOc1ccc(N2C(=O)C(C)SC2c2ccnc3ccccc23)cc1 (stereo not shown),-0.28%
15,CC(NC(=O)c1cccc2c1-c1ccccc1C2=O)c1ccccc1 (stereo not shown),-4.14%
16,COc1ccc(-c2nc(CSCC(=O)N3CCc4ccccc4C3)c(C)o2)cc1OC,-1.05%
17,COc1cccc(OC)c1C(=O)Nc1ccc(C(C)C)cc1,7.47%
18,COC(=O)c1sccc1NC(=O)CSCCc1ccccn1,-1.46%
19,CN(C)CCCNS(=O)(=O)c1ccc(N2CCC(c3ccc(Cl)cc3)=N2)cc1,1.38%
20,CN(C)CCO/N=C1\CCCc2sccc21,-4.5%

# From PMC6919601, “Identification of Plasmodium dipeptidyl aminopeptidase allosteric inhibitors by high throughput screening” (PLoS ONE, 2019)
